Read counts are not given, so values of variants with three or more changes are uncertain.

Sequences and labels used below:
B1: LINE1-mini (parent)
chain: GGCAGAGCUCAACACAGCGUGGCAAAGUGGCUGUGGCUAGACUGCC

The variants in the data set derive from B1. In words: self-cleavage, relative activity (ratio to wild type); higher = more cleavage; in vitro, sequencing; the parent is a self-cleaving ribozyme.
With A16U U32A G44C, the self-cleavage stood at 0.49.
Regarding C10U A12U G19C, the self-cleavage came out at 0.05.
Take G1U G33A G36C G44C: the self-cleavage was 0.03.
Next, G7C A11C G17U C42G: 0.05; C10U C31A G33C: 0.01.
Next, A12U U34C G44A: 0.03.
Next, G22U C42A U43C C45A: 0.03; G2C U9A C37A: 0.09.
Take U9C C13U G22A: the self-cleavage was 0.4.
The result for U20G G44A C46U reads 0.03; that for G7A C13A U38A, 0.04; that for C31U U38C C45A, 0.07.
Regarding A4U C8A C45A, the self-cleavage worked out at 0.32.
The result for A6U G17A G29U G35U reads 0.04; that for U9A A14G U32A, 0.04.
Next, G2A G7C G35A: 0.1.
Next, C3G A14U C42U: 0.27; G5U A12G G29A: 0.03; C10U G33A C37U G44A: 0.02.
On to G19A G21U U28G G40C, for which the self-cleavage turned out to be 0.07.
The result for C10G A14U G35U reads 0.03.
The result for A16U G27U U28C G33A G36U reads 0.09.
Next, G19C G21C A26U A39C: 0.03.
For C18A A24U C31A G36U, the self-cleavage stood at 0.03.
The result for C10A A26U U32C reads 0.03; that for A6G G7U U9A A24C C42A, 0.04; that for A6U C18G U20C G21U G36C, 0.04.
The result for U9C G27A G29C U38A reads 0.01.
Next, G1U C8G A41G: 0.08; C13G G33U C37U C45A: 0.03.
Regarding C8U C13U G21U A41U, the self-cleavage came to 0.37.
With U28A A41U C46A, the self-cleavage was 0.29.
In the case of G1A A6C C23U U34C, the self-cleavage amounted to 0.29.
Next, G7U U9G G44U: 0.05; A6G A16G G19C A25U: 0.02.
Next, A16G G35C C37U: 0.04.
The result for G17A A39C C46U reads 0.12; that for A16G G36U C37A G44U, 0.01.
C18G G22U G29U G40U A41U: the self-cleavage stood at 0.23.
The result for U28G U34A C37U U38C C46U reads 0.02.
The result for G7U C13U A14G G17U G19C U32C reads 0.13.
In the case of A11C G17A G30U, the self-cleavage is 0.04.
The result for G7C G22U C31A C46U reads 0.08.
The result for C13U C23A C46A reads 0.13; that for C10U A16C G35A G40A, 0.
The result for G19U U34A C37U reads 0.06; that for C13G U34A A41G, 0.08.
For the variant A25G G36C G44A, the self-cleavage is 0.03.
The result for G5C G29U G33A G44U reads 0.79; that for C10A A14C U28C U43G C46A, 0; that for G27U U28G C46U, 0.12.
Next, A12U G33U G40C: 0.05; G19C G21C C37G: 0.04.
U9G A11U G27A: the self-cleavage amounted to 0.02.
The result for G21U G29U U38G G44A C45G reads 0.04.
Next, A16U A25G C45U: 0.08.
Next, U20G A25U U28C G35U: 0.13; G2U G33U G36U: 0.04; A4U G17C C37G G40A C45A: 0.01.
On to A4C C18A A25C G36U C42G, for which the self-cleavage came out at 0.13.
Regarding G7U C15G U34C, the self-cleavage was 0.13.
Next, G7U A24G G40U C42A U43G: 0.14.
Turning to G19A G22U A24C G27C U28A C31U U32C G36A A41U, the self-cleavage turned out to be 0.06.
The result for A4U G7C G21C reads 0.1; that for G2U G35U C37G, 0.06; that for G5A A11U G29A G30C G35A, 0.04.
The result for G2C A25U G33U U34A G44C reads 0.42; that for G21U G29C G35A, 0.07.
The result for G2U G17C G19U U32A C37A reads 0.08; that for G2A G5U G21U A26C, 0.2.
Consider G7U C31U G35A C45A, for which the self-cleavage is 0.08.
Take C37A G40C C45U: the self-cleavage was 0.17.
The result for C10U C31U C37A reads 0.02; that for G2C A11G C23U G35U, 0.02.
Consider C15U G33U A41U, for which the self-cleavage is 0.16.
As for G7U A26C G33A, the self-cleavage stood at 0.15.
The result for C10A C23A A41G reads 0.02; that for U32G U38A U43C, 0.01.
U20A U28C G36U: the self-cleavage was found to be 0.03.
Next, G17A G30C U32A: 0.3.
The result for C13G C15A G35A C46A reads 0.12; that for G5U G22U G44C C46A, 0.06.
Next, G5U G7A C15U G30C: 0.15; C15G G21U A24G U28G G30A G33U: 0.02; C3G U20G G40U: 0.24.
As for C3U U32C G40U, the self-cleavage is 0.06.
Consider U9A C15U G27A G35C U43C, for which the self-cleavage is 0.11.
Next, G1C C15A G40C G44A: 0.02; C8U U9G G35A: 0.03.
For G1A C23A G27U G29A C31U U38A C45U, the self-cleavage came to 0.5.
The result for C13G A25U U43G reads 0.
As to C13G G35A A41G, the self-cleavage was found to be 0.01.
Next, C3A A25C C37A A41G: 0.05; A12G G30C A39G C42G: 0; G2A A4U G19U U38A C42U: 0.03.
The result for G5A C10U A26C A41C reads 0.02.
Next, G2U U32G G40A C42U: 0.04; G1U A6U G30U U38G G40C: 0.02.
Turning to G2A G17U G19A G36U, the self-cleavage came to 0.04.
C23A G30C A41G: the self-cleavage turned out to be 0.09.
Next, G19U G21U G30C G40C: 0.03.
The result for G2U C31A U38A G44C reads 0.02; that for G2U A14U G33C, 0.01.
The result for G29U G35U U43A C45U reads 0.19; that for A4U G5A C15G G29A, 0.03.
On to G17U G19U U34A A41G, for which the self-cleavage was 0.01.
The result for G17C C23U C37A reads 0.06; that for C10U G19C G35U G40C C42U, 0.08.
Next, A11U G17U C37U G44C: 0; C8U G30A G36C A39U: 0.06; G2A A11U G21C A26U: 0.11.
The result for G7C C13A G22U U34C reads 0.07; that for U20G G22C A26U G29U G40U, 0.07.
On to U9A C13A G21C G22U G33C G36A, for which the self-cleavage turned out to be 0.02.
Regarding A12U G27U G29A, the self-cleavage stood at 0.18.
With C31G C37G U43A G44A, the self-cleavage is 0.01.
The result for G7U C10G G21C U43G reads 0; that for C8G A11C G22A, 0.01.
The result for G2A A6C A11G C13G G36U reads 0.02; that for C15A G19U G21A G35C A41U, 0.02.
The result for U9C A11G C18G G27C reads 0.01; that for A14U G22U A41G, 0.08; that for G2A A25G A41C, 0.04.
Consider C3G A24C G27C U38G, for which the self-cleavage was 0.02.
As to G17A G22U U32A, the self-cleavage was determined as 0.1.
Next, C10A G21A G36A: 0.02.
The result for A12U C15G A25G G30C G33U reads 0.01.
Next, G2U U9G U20C C31U: 0.02.
G5U G7C C13G A26C: the self-cleavage was determined as 0.04.
Next, C18U U28G G30A G33U G40A: 0.04; G1U G2U G7C: 0.05; G1C A14U G22A C37A: 0.02.
The result for G7A C8A C15G reads 0.11.
Next, G7C C13U G30U C42U: 0.07; C13A A14G C18U U20A: 0.05; G17C A41G C45G: 0.05.
As for G5A A16U U20G U34C, the self-cleavage worked out at 0.03.
Next, G2C C10A U28G U34A G36U A41C: 0.01; A25G U34C G44A C45U: 0.28.
The result for G2A A25G A26G G30C A39C reads 0.08; that for A4G G29U C37A, 0.04.
As to G1U C15A A39G, the self-cleavage is 0.18.
Take A12C C13A U32G G35C: the self-cleavage stood at 0.
The result for C10A A12G A25U C37U reads 0; that for A6G U9A C15G G35A, 0.18; that for C10G A41G G44C, 0.04.
The result for C15U G33C G36U reads 0.
The result for U9G A11C G36U reads 0.03.
On to A6U C23U G36U U43A, for which the self-cleavage was found to be 0.14.
Next, G1U G7C C15G U20C C45A C46A: 0.05; C3A G21C U38A C46G: 0.2.
In the case of G5U C15A U43C, the self-cleavage is 0.
Next, C3A U34A A39U: 0.01; C13A G22A G40U: 0.02; G5U G21C C37A: 0.
The result for G1C A11G C31A reads 0.01.
Take G19U A24G C37G U38C: the self-cleavage was 0.01.
Next, C10A A24U C46A: 0.04; C15U A25G G40A: 0.04; C3G A11U C15U G33C: 0.03.
Next, C10A C23A C42G: 0.03; C3U A16U G21U G22U G29A: 0.19.
The result for G1U C3G G29U reads 0.1; that for G2U C8A C10G G27C A41U, 0.01.
In the case of G1U G5A G35U A39C C46G, the self-cleavage turned out to be 0.06.
The result for G2U G5C G30C G40U reads 0.03.
Next, G2C A12C G22A: 0.01.

Values taken from the RNAGym collection of RNA variant scans (doi:10.7554/elife.90254).
